Consider 1 molecule from patent publication US20260242478A1 (published 2026).

Common to all, as to test: binding ELISA, biotinylated peptide on neutravidin plate, scFv titrated
Test [1] has as its target T1, Peptide-87.
T1 peptide: YCAGHAWQYINKCL

Test [2] addresses T2, Peptide-41.
T2 peptide: MDWCPRDLWVHCFA

Test [3] has as its target T3, Peptide-79.
T3 peptide: ACDTYFAGMINECF

B1: anti-CD28 scFv (disulfide) (scFv)
scFv: QVQLVQSGAEVKKPGASVKVSCKASGYTFTSYYIHWVRQAPGQCLEWIGSIYPGNVNTNYNEKFKDRATLTVDTSISTAYMELSRLRSDDTAVYFCTRSHYGLDWNFDVWGQGTTVTVSSGGGGSGGGGSGGGGS[sequence of about 100 residues not given]
notes: also called Anti-CD28 scFv (VH - linker 1 - VL) Disulfide mutation: G44C, G235C
As for B1, the figures for the EC50 in test [1], in test [2] and in test [3] were 156 nM, 98.5 nM and 73.2 nM, respectively.
